Out of some 370,000 compounds screened, about 150 (0.041%) were called active. Inconclusive means that the source gave no clear call. Such entries were picked first, then a sample of the others. Calls follow the shape of the dose curve; as a rule, active = well fitted inhibition curve with a large enough effect; inconclusive = small, poorly fitted or top-dose-only effect; inactive = flat fitted curve, though single readings scatter. No potency is given beside an inconclusive call; the fits are too rough.
Target: Beta-lactamase (Escherichia coli (strain K12)) (UniProt P00811)
Chain of UniProt P00811 (P00811 whole entry, looked up): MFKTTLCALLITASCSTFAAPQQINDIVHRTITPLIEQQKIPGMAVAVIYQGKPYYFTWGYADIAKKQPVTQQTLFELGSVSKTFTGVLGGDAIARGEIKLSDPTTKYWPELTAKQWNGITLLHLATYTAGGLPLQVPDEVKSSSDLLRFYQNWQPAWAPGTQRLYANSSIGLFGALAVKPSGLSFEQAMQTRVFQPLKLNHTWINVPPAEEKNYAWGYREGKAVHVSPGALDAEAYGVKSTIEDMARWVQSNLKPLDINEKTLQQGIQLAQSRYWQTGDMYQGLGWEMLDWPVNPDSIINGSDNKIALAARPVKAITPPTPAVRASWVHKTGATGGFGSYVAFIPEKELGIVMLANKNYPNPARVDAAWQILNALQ
Experiment: qHTS Inhibitors of AmpC Beta-Lactamase (assay with detergent); also: nearly all actives have a fitted effect of over 25% in size
Details: AmpC hydrolysis of nitrocefin, absorbance 480 nm, 0.01% Triton; series mostly up to 114 µM
Outline: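 20 mM phosphate pH 7.0 + 0.01% (detergent screen) or 0.0001% Triton X-100; 5.3 nM AmpC reagent; cpd preinc 15 min RT; nitrocefin (800 uM stock) to start; A480 q20 s × 4 min; Activity was normalised to no-enzyme and no-compound control wells.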
Potency is read from the fitted curve at half-maximal effect; tags tell the direction and shape of the fitted curve.

SMILES	Potency
CC(CNC(=O)c1cc(-c2ccccc2)n[nH]1)c1ccccc1 (configuration not stated)	inactive
COc1ccc(C(=O)Nn2cnc3ccccc3c2=O)cc1[N+](=O)[O-]	inconclusive [inhibitor, single point]
COc1ccc(C(=O)CCC(C)(C)[N+](=O)[O-])cc1OC	inconclusive [inhibitor, partial curve, poor fit]
[O-]/C(=C(\C(=S)Nc1ccc(SC(F)F)cc1)[n+]1ccccc1)c1cc(Cl)ccc1Cl	inactive
Cc1ccc(S(=O)(=O)c2c(Nc3cc(C)ccc3C)sc(C(=O)c3ccc4c(c3)OCO4)c2N)cc1	inconclusive [inhibitor, full curve, poor fit]
O=c1[nH]cnc2cc(Cl)ccc12	inconclusive [inhibitor, full curve, poor fit]
O=C(NC1CCCCC1)c1ccc(S(=O)(=O)NCc2cccnc2)cc1	inactive
CC(C(=O)N1c2ccccc2CC1C)N1CCN(S(=O)(=O)c2ccccc2F)CC1 (configuration not stated)	inactive
CCN(CC)CCCOc1nc(C)nc2c1oc1ccccc12	inconclusive [inhibitor, partial curve, poor fit]
CC1CN(C(=O)COC(=O)CSc2ccc([N+](=O)[O-])cc2)CC(C)O1 (configuration not stated)	inconclusive [inhibitor, partial curve, poor fit]
Cc1cc(S(=O)(=O)N2CCc3ccccc3C2)ccc1F	inconclusive [inhibitor, full curve, poor fit]
CCC(C)(C)n1nnnc1C(c1ccc2ncccc2c1)N1CCCC(C)C1 (configuration not stated)	inconclusive [inhibitor, full curve, poor fit]
O=C(OCCN1CCOCC1)c1cccnc1	inconclusive [inhibitor, partial curve, poor fit]
CCC1CCCCN1C(=O)Nc1cc(Cl)ccc1OC (configuration not stated)	inconclusive [inhibitor, partial curve, poor fit]
CCN(CC)CCCN=Cc1c(O)n(-c2ccccc2F)c(=O)[nH]c1=O	inconclusive [inhibitor, full curve, poor fit]
CCn1c(SCC(=O)N2c3ccccc3Sc3ccccc32)nnc1-c1ccco1	inconclusive [inhibitor, full curve, poor fit]
CCOC(=O)CC(=O)CSc1ccc2nnc(-c3cccc(F)c3)n2n1	inconclusive [inhibitor, partial curve, poor fit]
O=C(NC1CCCC1)C(c1ccccc1)N(Cc1ccc2c(c1)OCO2)C(=O)Cc1cccs1 (configuration not stated)	inactive
CCCCNC(=O)c1cc2c(=O)n3cccc(C)c3nc2n(Cc2ccccc2)c1=N	inconclusive [inhibitor, full curve, poor fit]
COc1ccc(Cc2nnc(NC(=O)C(C)(C)C)s2)cc1	inactive
O=C(CNC(=O)c1ccc(OC(F)F)cc1)NC1CCCc2ccccc21 (configuration not stated)	inactive

SMILES	Potency
CCN(CC)S(=O)(=O)c1ccc2c(c1)nc(CN(C)C(=O)Nc1cccc(Cl)c1)n2C	inactive
CC(=O)Nc1ccc(NC(=O)c2ccccc2Sc2ccc([N+](=O)[O-])cc2Cl)cc1	inconclusive [inhibitor, full curve, poor fit]
Cc1cc(C)cc(C(=O)NCC(=O)OCc2cc([N+](=O)[O-])cc3c2OCOC3)c1	inconclusive [inhibitor, partial curve]
O=C(c1cccs1)N1CCN(S(=O)(=O)c2cccc(Cl)c2Cl)CC1	inconclusive [inhibitor, full curve]
Clc1ccc(SCc2nc3ccccc3[nH]2)cc1	inactive
COc1ccc(S(=O)(=O)Cc2ccc(C(=O)NCc3ccco3)o2)cc1	inconclusive [inhibitor, partial curve, poor fit]
N=C1/C(=C\c2ccc(OC(=O)c3ccc(F)cc3)cc2)C(=O)N=C2SC(N3CCCC3)=NN12	inactive
O=C(Nc1ccccc1)c1ccccc1O	inconclusive [inhibitor, full curve, poor fit]
COC(=O)C(C)NC(=O)CNS(=O)(=O)c1ccc(F)cc1 (configuration not stated)	inconclusive [inhibitor, single point]
O=C(CSc1nc2nc(-c3cccs3)cc(C(F)(F)F)c2c(=O)[nH]1)Nc1ccc(F)c(F)c1	inactive
C/C(=N\NC(=O)c1ccccc1OCCOc1ccccc1)c1ccccc1F	inconclusive [inhibitor, full curve]
CC(C)CN(C(=O)COC(=O)c1ccccn1)c1c(N)n(Cc2ccccc2)c(=O)[nH]c1=O	inconclusive [inhibitor, full curve, poor fit]
CC1=C(C(=O)OCCBr)C(c2cccc3ccccc23)NC(=O)N1 (configuration not stated)	inconclusive [inhibitor, partial curve, poor fit]
CCOC(=O)N1[C@@H]2C=C(C)[C@@H]2[C@@H]2[C@@H](C)C(=O)N21	inconclusive [inhibitor, full curve]
CC(=O)O[C@H]1C[C@@H]2CC[C@@H]3[C@H](CC[C@]4(C)C(=O)CC[C@@H]34)[C@@]2(C)C[C@@H]1OC(C)=O	inconclusive [inhibitor, full curve]
CCCCOC(=O)c1ccc(NC(=O)C(=O)NCC2CCCO2)cc1 (configuration not stated)	inconclusive [inhibitor, full curve, poor fit]
Cc1oc(C(=O)O)cc1CSCc1ccoc1C(=O)O	inconclusive [inhibitor, full curve, poor fit]
CCOc1ccc2nc(N3CCCC(C(=O)NCCCOC)C3)sc2c1 (configuration not stated)	inactive
COc1ccc2nc(NC(=O)CS(=O)(=O)c3ccc(C)cc3)sc2c1	inactive
COc1ccc(NC(=O)CSc2nc3ccccc3nc2N2CCOCC2)cc1	inconclusive [inhibitor, full curve, poor fit]
COc1ccc(Nc2cc(C)c3ccc(O)cc3n2)cc1	inactive
